Reference: paper PMC10668032
This is one part of the list. At the low end of the ranking, values are background and their order means little.

molecular target: SIX1 homeodomain (reference allele) (UniProt Q15475); experiment: universal protein binding microarray; conditions: Universal all-10-mer PBM (8x60K, AMADID 030236), 300 nM GST-tagged protein, Alexa Fluor 488 anti-GST; buffer, salt, pH and temperature not stated; high values mean tight binding; most listed sequences are background and not binding sites; double strand, one strand shown

Sequence | binding signal
AAGTTTGC | -0.163 E-score
GAAATTCA | -0.244 E-score
TCGTATCA | 0.45 E-score
TTGTCAAA | -0.153 E-score
CACGGGCA | -0.0129 E-score
CCAGATGA | 0.203 E-score
ATGTACCA | 0.0538 E-score
ACTAGTAG | -0.0371 E-score
AGCATGCT | -0.313 E-score
GCATGGCC | -0.187 E-score
CAACTAAA | -0.0157 E-score
ATGTGTCG | -0.0766 E-score
GTGTGCAA | -0.13 E-score
AGTGTATG | 0.0378 E-score
CAGCACGC | -0.183 E-score
ATCCTCCC | 0.304 E-score
AGGAGAGC | -0.0652 E-score
CTCACCGA | 0.0417 E-score
ACCCCTCC | 0.142 E-score
GGCACCCA | -0.0563 E-score
AATAGGAT | 0.332 E-score
CAACTAGA | 0.00189 E-score
AAAGGATG | -0.0408 E-score
ATCGAGAA | 0.182 E-score
ACGTGGCG | -0.161 E-score

Sequence | binding signal
AAGTAGGG | -0.0184 E-score
AGAAAAGC | -0.326 E-score
CCGTACGC | -0.166 E-score
AGACCTGG | -0.093 E-score
GTTCGGTA | -0.0422 E-score
CTTCCCCC | -0.071 E-score
CCCCGGAA | -0.138 E-score
TGGACAAA | -0.147 E-score
GCGAACAA | -0.0258 E-score
AACAGCGT | -0.125 E-score
CACGCACG | -0.0944 E-score
CGGTGAAC | 0.0225 E-score
GGGTGTCA | 0.47 E-score
CTGTCCAA | -0.112 E-score
AGAGAGGC | -0.111 E-score
ATCACACG | 0.256 E-score
TATCGTAA | 0.296 E-score
ACCTATAT | 0.195 E-score
CGGCACCA | -0.0307 E-score
AGCCGAGC | -0.178 E-score
TCATCAGA | -0.0287 E-score
ACGCTTAG | -0.101 E-score
AGCGGCTA | -0.0681 E-score
ATCCCAGA | 0.227 E-score
CACGAGCG | -0.234 E-score

Sequence | binding signal
GACCCTGC | -0.042 E-score
GAAGAGAA | -0.0939 E-score
GCCTCGCC | -0.0248 E-score
ACGGAGAC | 0.127 E-score
CTTAATAA | -0.106 E-score
TAGTGGAA | -0.134 E-score
ACCTGAAA | -0.027 E-score
AAAACCAT | 0.103 E-score
AGATCGTA | 0.237 E-score
CAGTATAG | 0.178 E-score
CACTCCCC | -0.0151 E-score
CTCAAGTA | 0.0414 E-score
CCGCGCGC | -0.155 E-score
ACTAAAGG | -0.134 E-score
ATCGGGGC | 0.198 E-score
AGTGAGGA | -0.0654 E-score
CTGGCCAC | -0.176 E-score
GTGTAGCA | -0.191 E-score
CGTCGGCC | -0.264 E-score
ACTCGATG | -0.0167 E-score
TATGCGGA | 0.284 E-score
TACTTGAA | 0.0425 E-score
AGGAACCT | -0.0327 E-score
AGGGCCAT | -0.142 E-score
ATTAATTG | 0.0139 E-score

Sequence | binding signal
ATAAGTAC | -0.0335 E-score
AATAAGGG | -0.104 E-score
AATCTGTG | 0.0621 E-score
AAAGTCTA | -0.196 E-score
GGACTGCA | -0.254 E-score
AGGAAAGG | -0.0806 E-score
ATATGTGC | 0.241 E-score
ATCTCCGG | 0.229 E-score
CGTTGCGC | -0.246 E-score
AACGGACT | -0.33 E-score
GCGGACCC | -0.0794 E-score
CAGTATAA | 0.117 E-score
CACTGCCG | 0.0986 E-score
ATCCGGAT | 0.446 E-score
GTAGCGCA | -0.126 E-score
CGGAACGC | -0.0738 E-score
CAGCAGAA | -0.145 E-score
CAAGTGGA | 0.141 E-score
CAATTAAC | -0.119 E-score
GCATACTA | 0.22 E-score
CCCGCCGA | 0.0271 E-score
TAGTCGCA | -0.0507 E-score
CGGCCGAG | -0.112 E-score
CACACCTG | 0.0264 E-score
AGTATGCA | -0.0969 E-score

Sequence | binding signal
GTTCCAGA | 0.0177 E-score
ATTTAGTG | 0.143 E-score
CGATAGGC | 0.175 E-score
CCTGTGAG | -0.0112 E-score
CCACCACC | -0.0531 E-score
TATAACAA | 0.224 E-score
CGCCACCG | -0.0881 E-score
CTCGAGGA | -0.0713 E-score
AGAACTGA | -0.0616 E-score
ATAAAGAT | 0.0956 E-score
AATTGAGG | -0.152 E-score
ACAATCTA | 0.02 E-score
ACAGAGGC | -0.16 E-score
TAACAATA | 0.0577 E-score
CGTCGTAA | -0.166 E-score
AGGTCGCG | -0.17 E-score
AAATCAGC | -0.224 E-score
ACCCAAGG | 0.0737 E-score
CGAAGCCA | -0.164 E-score
ATTACCTC | -0.147 E-score
CAGATGCC | -0.0756 E-score
AAGAGCGG | -0.0725 E-score
GCAGCCGC | -0.0696 E-score
ACGAACGA | -0.117 E-score
GCGAACGC | 0.024 E-score

Sequence | binding signal
CAAAGGTC | -0.223 E-score
AACCATTA | -0.106 E-score
ACCCAATC | 0.081 E-score
GCCATTAC | -0.149 E-score
CCACACGC | 0.141 E-score
AAAGCAGT | -0.017 E-score
ACCTTATA | 0.17 E-score
CCTTTTGA | -0.0432 E-score
CGAATACA | 0.151 E-score
TTACCAAA | -0.0282 E-score
CTTATGAC | -0.154 E-score
ACCTTGGC | -0.093 E-score
AAATTGAC | -0.0828 E-score
AAGTCCTG | -0.109 E-score
CAACCTGC | -0.215 E-score
CGTATGCA | 0.0166 E-score
CTCTCTAC | -0.0321 E-score
CTTCTTTA | -0.0212 E-score
GAAGGCTC | 0.00269 E-score
CTTGCATC | 0.0348 E-score
AGCAGCGA | -0.113 E-score
GGCAACTA | -0.3 E-score
GTGATTCA | -0.116 E-score
CGCGTGGA | -0.107 E-score
GGCGACCA | -0.152 E-score

Sequence | binding signal
AGATACAG | 0.246 E-score
ATGTTGTC | 0.0683 E-score
ACTGGCCA | -0.193 E-score
AATACGGG | 0.259 E-score
CTGTAACA | -0.202 E-score
GGGGCCAA | -0.184 E-score
ATAAGCGC | -0.0863 E-score
CGCCGGCG | 0.145 E-score
ACAGACCC | -0.141 E-score
ATAAGAGG | 0.0089 E-score
AAATATCT | 0.157 E-score
ACCTCTAT | 0.0242 E-score
AGACCTAA | -0.198 E-score
CACGATGA | -0.0459 E-score
ATTGCATA | 0.111 E-score
ACCTTACC | -0.0774 E-score
CGGCACCG | 0.0338 E-score
ATCCATAG | 0.193 E-score
AAGCTGGG | 0.0352 E-score
GAGGAGTA | 0.0858 E-score
CTAACACC | 0.213 E-score
CACCTTCC | 0.115 E-score
AAGCTAAG | -0.24 E-score
ACCAAAAC | -0.0414 E-score
ACCCTACG | 0.0306 E-score

Sequence | binding signal
AATCGTAG | -0.0874 E-score
GGTGTGAA | 0.135 E-score
CAGCGCGA | 0.0341 E-score
CGAGGCAA | -0.19 E-score
GCTTCATA | -0.031 E-score
ACTTTTTA | -0.208 E-score
AGGTCTGC | -0.286 E-score
CTGACCCA | -0.112 E-score
ATCTGAGG | 0.261 E-score
ATTCTTCC | -0.149 E-score
AGCCATAA | -0.1 E-score
AGCTCCCG | -0.103 E-score
CAAACATA | -0.0705 E-score
AGTCGTCG | -0.315 E-score
AAAATATT | 0.0756 E-score
GGACTAGA | -0.269 E-score
AATTGAAC | -0.201 E-score
CTAGACTC | -0.00854 E-score
CCATGACC | -0.158 E-score
CTTGAAAG | -0.0594 E-score
GCTTGATA | 0.351 E-score
AATAACGG | -0.133 E-score
TCTTATAA | -0.0653 E-score
CGTCTCCC | 0.136 E-score
AATGCGGT | -0.0549 E-score

Sequence | binding signal
ATACAATG | 0.248 E-score
CTTAGGTA | 0.0262 E-score
TCGTTTCA | 0.0294 E-score
CATGGTGC | -0.137 E-score
AACGCGCC | -0.105 E-score
CCAGGACA | 0.0172 E-score
GTGTGTCA | 0.00739 E-score
ACCTAGCA | 0.0052 E-score
CCCGGCTC | 0.0823 E-score
CGCAGGTA | 0.146 E-score
AGAGGAAC | -0.183 E-score
AGTCTTCG | -0.142 E-score
AGCGGGCC | -0.191 E-score
GCAACTGC | -0.217 E-score
ATGTCTCC | -0.0122 E-score
ACTGGCCG | -0.304 E-score
ACGAAAGT | -0.264 E-score
CTCGCTGA | -0.0845 E-score
GACTAGGC | -0.111 E-score
